Data on nine variants can be found in the supplement of paper PMC12217912.

To fix the notation:
B1: TEV protease; numbered along this chain (parent)
chain: MGESLFKGPRDYNPISSSICHLTNESDGHTTSLYGIGFGPFIITNKHLFRRNNGTLVVQSLHGVFKVKDTTTLQQHLVDGRDMIIIRMPKDFPPFPQKLKFREPQREERICLVTTNFQTKSMSSMVSDTSCTFPSGDGIFWKHWIQTKDGQCGSPLVSTRDGFIVGIHSASNFTNTNNYFTSVPKNFMELLTNQEAQQWVSGWRLNADSVLWGGHKVFMVKPEEPFQPVKEATQL

The variants in the test derive from B1. Nature of the test: raw area under fraction-flipped curve 0-4 h after induction (AUC4h, not background-subtracted), DNA-recorder readout of cleavage of the substrate (dimensionless); higher = more cleavage of the substrate by the protease variant. As to conditions: temperature: 34 °C; time window: 0-4 h after rhamnose induction. On the procedure: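 In vivo DNA recorder in E. coli TOP10(DE3) ΔrhaA at 34 °C. Each TEVp single-site mutant (parent TEVp 0) is paired with a single-site variant of the 7-mer TEVs (canonical ENLYFQ|S). The substrate sits between flexible linkers in a Bxb1-sfGFP-TEVs-SsrA fusion, so cleavage stabilises Bxb1 and speeds flipping of a recombination array, read by NGS. The value is the raw area under the fraction-flipped curve over 0-4 h after rhamnose induction (AUC4h), with ≥20 reads per time point. It is not background-subtracted; inactive controls average about 0.047.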

Some of the results follow. Sequences were assembled here from the parent chain. Inactive controls read about 0.05.
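Also: Bxb1 expression induced with 0.2% (w/v) L-rhamnose at OD600 near 0.5, cultures sampled hourly, flipped fraction per protease–substrate barcode pair counted by paired-end Illumina sequencing.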

Take MGESLFKGPIDYNPISSSICHLTNESDGHTTSLYGIGFGPFIITNKHLFRRNNGTLVVQSLHGVFKVKDTTTLQQHLVDGRDMIIIRMPKDFPPFPQKLKFREPQREERICLVTTNFQTKSMSSMVSDTSCTFPSGDGIFWKHWIQTKDGQCGSPLVSTRDGFIVGIHSASNFTNTNNYFTSVPKNFMELLTNQEAQQWVSGWRLNADSVLWGGHKVFMVKPEEPFQPVKEATQL [R10I]: the “area with substrate EALYFQS” value is 0.0856, the “area with substrate ECLYFQS” value is 0.127, the “area with substrate EDLYFQS” value was determined as 0.0896 and the “area with substrate EELYFQS” value stood at 0.121. Besides, the “area with substrate EILYFQS” value was found to be 0.0953, the “area with substrate ELLYFQS” value was determined as 0.0763, the “area with substrate EMLYFQS” value was 0.0671 and the “area with substrate EPLYFQS” value worked out at 0.109. Also, the “area with substrate EQLYFQS” value amounted to 0.0943, the “area with substrate ERLYFQS” value is 0.0743, the “area with substrate ESLYFQS” value was found to be 0.105 and the “area with substrate EVLYFQS” value was 0.0902. Moreover, the “area with substrate EYLYFQS” value amounted to 0.0729.
For MGESLFKGPLDYNPISSSICHLTNESDGHTTSLYGIGFGPFIITNKHLFRRNNGTLVVQSLHGVFKVKDTTTLQQHLVDGRDMIIIRMPKDFPPFPQKLKFREPQREERICLVTTNFQTKSMSSMVSDTSCTFPSGDGIFWKHWIQTKDGQCGSPLVSTRDGFIVGIHSASNFTNTNNYFTSVPKNFMELLTNQEAQQWVSGWRLNADSVLWGGHKVFMVKPEEPFQPVKEATQL [R10L], the “area with substrate EALYFQS” value was 0.123, the “area with substrate ECLYFQS” value is 0.113, the “area with substrate EDLYFQS” value was determined as 0.0953 and the “area with substrate EELYFQS” value stood at 0.107. The “area with substrate EGLYFQS” value is 0.0913, the “area with substrate EILYFQS” value was 0.104, the “area with substrate EMLYFQS” value worked out at 0.102 and the “area with substrate EPLYFQS” value turned out to be 0.114. Moreover, the “area with substrate EQLYFQS” value stood at 0.12, the “area with substrate ERLYFQS” value came out at 0.0877, the “area with substrate ESLYFQS” value was found to be 0.102 and the “area with substrate EVLYFQS” value came out at 0.0977. Besides, the “area with substrate EWLYFQS” value was 0.0998 and the “area with substrate EYLYFQS” value was determined as 0.119.
MGGSLFKGPRDYNPISSSICHLTNESDGHTTSLYGIGFGPFIITNKHLFRRNNGTLVVQSLHGVFKVKDTTTLQQHLVDGRDMIIIRMPKDFPPFPQKLKFREPQREERICLVTTNFQTKSMSSMVSDTSCTFPSGDGIFWKHWIQTKDGQCGSPLVSTRDGFIVGIHSASNFTNTNNYFTSVPKNFMELLTNQEAQQWVSGWRLNADSVLWGGHKVFMVKPEEPFQPVKEATQL [E3G]: the “area with substrate EALYFQS” value turned out to be 0.0561, the “area with substrate ECLYFQS” value was 0.066, the “area with substrate EDLYFQS” value was found to be 0.0713 and the “area with substrate EELYFQS” value is 0.0744. In addition, the “area with substrate EFLYFQS” value came out at 0.0922, the “area with substrate EHLYFQS” value stood at 0.0738, the “area with substrate EILYFQS” value was determined as 0.0648 and the “area with substrate EKLYFQS” value was 0.0611. In addition, the “area with substrate ELLYFQS” value worked out at 0.0646, the “area with substrate EMLYFQS” value worked out at 0.0736, the “area with substrate EQLYFQS” value came to 0.0729 and the “area with substrate ERLYFQS” value was 0.062. Moreover, the “area with substrate ESLYFQS” value came to 0.0633, the “area with substrate EVLYFQS” value came out at 0.0581, the “area with substrate EWLYFQS” value is 0.0642 and the “area with substrate EYLYFQS” value turned out to be 0.0735.
For the variant MGPSLFKGPRDYNPISSSICHLTNESDGHTTSLYGIGFGPFIITNKHLFRRNNGTLVVQSLHGVFKVKDTTTLQQHLVDGRDMIIIRMPKDFPPFPQKLKFREPQREERICLVTTNFQTKSMSSMVSDTSCTFPSGDGIFWKHWIQTKDGQCGSPLVSTRDGFIVGIHSASNFTNTNNYFTSVPKNFMELLTNQEAQQWVSGWRLNADSVLWGGHKVFMVKPEEPFQPVKEATQL [E3P], the “area with substrate EALYFQS” value is 0.133, the “area with substrate ECLYFQS” value came out at 0.129, the “area with substrate EELYFQS” value is 0.0913 and the “area with substrate EGLYFQS” value is 0.0814. In addition, the “area with substrate EHLYFQS” value worked out at 0.144, the “area with substrate EKLYFQS” value came out at 0.125, the “area with substrate EPLYFQS” value turned out to be 0.119 and the “area with substrate EQLYFQS” value was 0.103. Further, the “area with substrate ESLYFQS” value turned out to be 0.117, the “area with substrate EVLYFQS” value amounted to 0.0906, the “area with substrate EWLYFQS” value came to 0.113 and the “area with substrate EYLYFQS” value came to 0.105.
For MGESQFKGPRDYNPISSSICHLTNESDGHTTSLYGIGFGPFIITNKHLFRRNNGTLVVQSLHGVFKVKDTTTLQQHLVDGRDMIIIRMPKDFPPFPQKLKFREPQREERICLVTTNFQTKSMSSMVSDTSCTFPSGDGIFWKHWIQTKDGQCGSPLVSTRDGFIVGIHSASNFTNTNNYFTSVPKNFMELLTNQEAQQWVSGWRLNADSVLWGGHKVFMVKPEEPFQPVKEATQL [L5Q], the “area with substrate EALYFQS” value is 0.135, the “area with substrate ECLYFQS” value was 0.115, the “area with substrate EDLYFQS” value was 0.165 and the “area with substrate EFLYFQS” value was 0.122. For the same variant, the “area with substrate EGLYFQS” value was 0.157, the “area with substrate EHLYFQS” value was determined as 0.133, the “area with substrate EILYFQS” value is 0.105 and the “area with substrate EKLYFQS” value turned out to be 0.141. In addition, the “area with substrate ELLYFQS” value was determined as 0.089, the “area with substrate EMLYFQS” value came out at 0.133, the “area with substrate EPLYFQS” value was determined as 0.118 and the “area with substrate ERLYFQS” value turned out to be 0.121. Further, the “area with substrate ESLYFQS” value is 0.109, the “area with substrate EVLYFQS” value worked out at 0.105, the “area with substrate EWLYFQS” value was determined as 0.111 and the “area with substrate EYLYFQS” value amounted to 0.0953.
On to MGEELFKGPRDYNPISSSICHLTNESDGHTTSLYGIGFGPFIITNKHLFRRNNGTLVVQSLHGVFKVKDTTTLQQHLVDGRDMIIIRMPKDFPPFPQKLKFREPQREERICLVTTNFQTKSMSSMVSDTSCTFPSGDGIFWKHWIQTKDGQCGSPLVSTRDGFIVGIHSASNFTNTNNYFTSVPKNFMELLTNQEAQQWVSGWRLNADSVLWGGHKVFMVKPEEPFQPVKEATQL [S4E], for which the “area with substrate EALYFQS” value came out at 0.148, the “area with substrate ECLYFQS” value was 0.119, the “area with substrate EDLYFQS” value amounted to 0.136 and the “area with substrate EGLYFQS” value came to 0.124. Also, the “area with substrate EHLYFQS” value was 0.116, the “area with substrate EILYFQS” value turned out to be 0.103, the “area with substrate EKLYFQS” value is 0.112 and the “area with substrate ELLYFQS” value turned out to be 0.116. The “area with substrate EPLYFQS” value worked out at 0.136, the “area with substrate EQLYFQS” value amounted to 0.129, the “area with substrate ERLYFQS” value was 0.126 and the “area with substrate ETLYFQS” value is 0.134. Further, the “area with substrate EVLYFQS” value turned out to be 0.0726, the “area with substrate EWLYFQS” value is 0.124 and the “area with substrate EYLYFQS” value is 0.115.
For the variant MGEPLFKGPRDYNPISSSICHLTNESDGHTTSLYGIGFGPFIITNKHLFRRNNGTLVVQSLHGVFKVKDTTTLQQHLVDGRDMIIIRMPKDFPPFPQKLKFREPQREERICLVTTNFQTKSMSSMVSDTSCTFPSGDGIFWKHWIQTKDGQCGSPLVSTRDGFIVGIHSASNFTNTNNYFTSVPKNFMELLTNQEAQQWVSGWRLNADSVLWGGHKVFMVKPEEPFQPVKEATQL [S4P], the “area with substrate EALYFQS” value turned out to be 0.105, the “area with substrate ECLYFQS” value is 0.108, the “area with substrate EDLYFQS” value was found to be 0.13 and the “area with substrate EELYFQS” value came to 0.156. Also, the “area with substrate EFLYFQS” value was 0.0928, the “area with substrate EGLYFQS” value was 0.0817, the “area with substrate EILYFQS” value was 0.0773 and the “area with substrate EKLYFQS” value came out at 0.0681. The “area with substrate ELLYFQS” value was 0.0856, the “area with substrate EMLYFQS” value came out at 0.113, the “area with substrate EPLYFQS” value was 0.0982 and the “area with substrate ERLYFQS” value was found to be 0.0962. The “area with substrate ESLYFQS” value came out at 0.12, the “area with substrate ETLYFQS” value came out at 0.108, the “area with substrate EVLYFQS” value turned out to be 0.0937 and the “area with substrate EYLYFQS” value was 0.146.
Turning to MGEKLFKGPRDYNPISSSICHLTNESDGHTTSLYGIGFGPFIITNKHLFRRNNGTLVVQSLHGVFKVKDTTTLQQHLVDGRDMIIIRMPKDFPPFPQKLKFREPQREERICLVTTNFQTKSMSSMVSDTSCTFPSGDGIFWKHWIQTKDGQCGSPLVSTRDGFIVGIHSASNFTNTNNYFTSVPKNFMELLTNQEAQQWVSGWRLNADSVLWGGHKVFMVKPEEPFQPVKEATQL [S4K], the “area with substrate EALYFQS” value turned out to be 0.164, the “area with substrate ECLYFQS” value is 0.131, the “area with substrate EDLYFQS” value is 0.156 and the “area with substrate EELYFQS” value was determined as 0.173. The “area with substrate EFLYFQS” value worked out at 0.12, the “area with substrate EHLYFQS” value was 0.148, the “area with substrate EILYFQS” value is 0.11 and the “area with substrate EKLYFQS” value is 0.104. Moreover, the “area with substrate ELLYFQS” value amounted to 0.0973, the “area with substrate EQLYFQS” value was determined as 0.128, the “area with substrate ESLYFQS” value is 0.133 and the “area with substrate ETLYFQS” value was 0.142. For the same variant, the “area with substrate EVLYFQS” value turned out to be 0.121, the “area with substrate EWLYFQS” value stood at 0.143 and the “area with substrate EYLYFQS” value came out at 0.136.
As to MGEVLFKGPRDYNPISSSICHLTNESDGHTTSLYGIGFGPFIITNKHLFRRNNGTLVVQSLHGVFKVKDTTTLQQHLVDGRDMIIIRMPKDFPPFPQKLKFREPQREERICLVTTNFQTKSMSSMVSDTSCTFPSGDGIFWKHWIQTKDGQCGSPLVSTRDGFIVGIHSASNFTNTNNYFTSVPKNFMELLTNQEAQQWVSGWRLNADSVLWGGHKVFMVKPEEPFQPVKEATQL [S4V], the “area with substrate EALYFQS” value is 0.0463, the “area with substrate ECLYFQS” value came to 0.131, the “area with substrate EDLYFQS” value amounted to 0.158 and the “area with substrate EELYFQS” value came to 0.172. Besides, the “area with substrate EILYFQS” value was 0.117, the “area with substrate EKLYFQS” value turned out to be 0.151, the “area with substrate ELLYFQS” value was determined as 0.109 and the “area with substrate EMLYFQS” value stood at 0.171. Further, the “area with substrate EQLYFQS” value came out at 0.143, the “area with substrate ERLYFQS” value was found to be 0.151, the “area with substrate ESLYFQS” value turned out to be 0.129 and the “area with substrate ETLYFQS” value came out at 0.134. Also, the “area with substrate EVLYFQS” value amounted to 0.117 and the “area with substrate EWLYFQS” value was determined as 0.0019.
